# Source: PubChem BioAssay AID1745853 (National Center for Advancing Translational Sciences (NCATS), 2022)
# The other results are listed elsewhere or left out. The main result of the screen is listed elsewhere. These columns were measured beside it and carry no call.
# Legend:
# Experiment in all cases: Primary Screen for Target Class Profiling of Small Molecule Inhibitors of Methyltransferases
# [1] = biological target: Glycine N-methyltransferase (Homo sapiens) (UniProt Q14749); details: purified enzyme, MTase-Glo SAH luminescence; measured here: GNMT inhibition; at 40 µM; stronger effect = lower value
# Method in brief: (§1)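 Each enzyme was assayed with SAM and its substrate. SAH formation detected by MTase-Glo luminescence; single-point 40 uM screen[…].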
# [2] = biological target: Guanidinoacetate N-methyltransferase (Homo sapiens) (UniProt Q14353); details: purified enzyme, MTase-Glo SAH luminescence; measured here: GAMT inhibition; at 40 µM; stronger effect = lower value
# Method in brief: as §1
# [3] = biological target: Histamine N-methyltransferase (Homo sapiens) (UniProt P50135); details: purified enzyme, MTase-Glo SAH luminescence; measured here: HNMT inhibition; at 40 µM; stronger effect = lower value
# Method in brief: as §1
# [4] = biological target: Nicotinamide N-methyltransferase (Homo sapiens) (UniProt P40261); details: purified enzyme, MTase-Glo SAH luminescence; measured here: NNMT inhibition; at 40 µM; stronger effect = lower value
# Method in brief: as §1
# [5] = biological target: Phenylethanolamine N-methyltransferase (Homo sapiens) (UniProt P11086); details: purified enzyme, MTase-Glo SAH luminescence; measured here: PNMT inhibition; at 40 µM; stronger effect = lower value
# Method in brief: as §1
# % is scaled to controls: 0 for no effect and ±100 for the full control effect.
Compound,"activity change, negative = inhibition [1] [%]","activity change, negative = inhibition [2] [%]","activity change, negative = inhibition [3] [%]","activity change, negative = inhibition [4] [%]","activity change, negative = inhibition [5] [%]"
Cc1ccc(CNC(=O)C2(C)Cn3nc(C(=O)NCCc4ccccc4C)cc3C(=O)N2C)cc1 (stereo not given),2.44,0,5.5,2.02,2.17
O=C(CCc1nnc2n(Cc3ccc(F)cc3)c(=O)c3ccccc3n12)NCc1ccc(Cl)cc1,-11.2,4.01,-0.015,-3.47,-7.59
CCCCCCCCCCCCCCSCC(=O)O,1.85,8.95,3.04,-7.29,4.71
CC(C)N(Cc1nccn1C)C(=O)CC(c1ccccc1)c1ccccc1F (stereo not given),-6.31,-6.95,-11.6,-15.1,-5.43
Cc1ccc(NC(=O)Cn2nc3n(C(C)C)c(=O)c4ccc(C(=O)NCC(C)C)cc4n3c2=O)cc1F,5.18,0.071,9.98,-2.05,4.95
CC1(C)CC[C@]2(C(=O)O[C@@H]3O[C@H](CO[C@@H]4O[C@H](CO)[C@@H](O)[C@H](O)[C@H]4O)[C@@H](O)[C@H](O[C@@H]4O[C@H](CO)[C@@H](O)[C@H](O)[C@H]4O)[C@H]3O)[C@H](O)C[C@]3(C)C(=CCC4[C@@]5(C)CC[C@H](O[C@@H]6OC[C@@H](O)[C@H](O)[C@H]6O)[C@@](C)(C(=O)O)C5CC[C@]43C)[C@@H]2C1 (stereo not given in full),3.43,-3.73,6.92,-12.2,4.84
COC(=O)c1ncn2c1C(=O)N(CCc1ccc(SC)cc1)C(C)(C(=O)NC1CCCCC1)C2 (stereo not given),0.467,0,11.6,4.57,3.72
CC(C)OCCCn1c(=O)c2ccccc2n2c(CCC(=O)NCc3ccccc3Cl)nnc12,0.445,-4.3,10.3,-1.92,-10.9
CC(=O)OC/C=C(\C)C(CC1C(C)=C(OC(C)=O)C(=O)C2C(C)(C)C(O)CCC12C)OC(C)=O (stereo not given),3.21,6.76,10.9,-9.86,6.35
O=C(O)CN(CCN(CC(=O)O)CC(=O)O)CCN(CC(=O)O)CC(=O)O,-4.53,8.2,2.48,-7.07,1.05
COc1cc(OC)cc(C(=O)NCC2CCCN(C(=O)CCNC(C)=O)C2)c1 (stereo not given),0.082,0.367,0.963,-3.89,-0.557
CC(C)OCCCn1c(=O)c2ccccc2n2c(CCC(=O)NCCc3ccc(Cl)cc3)nnc12,-5.24,3.9,3.21,-3.54,-2.39
CC1(C(=O)NCc2ccccc2)Cc2ccccc2C(=O)N1Cc1ccccc1 (stereo not given),11.7,0,10.2,-1.16,4.16
CC(C)(CO)Cc1cc(C(C)(C)C)c(O)c(C(C)(C)C)c1,5.42,16.7,10.5,-5.96,2.59
C=C1C(=O)OC2C1CCC(=C)C1CC(OC(C)=O)C(=C)C12 (stereo not given),-16.7,-11.3,-5.14,-19.7,-17.1
Cc1ccccc1NC(=O)CSc1nnc2n(CC(C)C)c(=O)c3ccccc3n12,-4.19,0.743,-0.432,-2.37,0.783
C#CCN(C)CCCOc1ccc(Cl)cc1Cl,6.29,13.1,8.21,-5.25,4.4
COc1ccc(CCN2C(=O)c3cc4ccccc4n3CC2(C)C(=O)NC2CCCC2)cc1OC (stereo not given),-2.13,0,-3.76,-21.4,1.49

Compound,"activity change, negative = inhibition [1] [%]","activity change, negative = inhibition [2] [%]","activity change, negative = inhibition [3] [%]","activity change, negative = inhibition [4] [%]","activity change, negative = inhibition [5] [%]"
CN(Cc1cccn1C)C(=O)c1ccc(Cl)nc1,-4.58,-7.51,-1.75,-5.88,-5.06
C[C@@H]1CN(C[C@@H]2CN(C(=O)c3ccc(Cl)o3)C[C@@H]2CO)C[C@H](C)O1,-2.31,0.626,0.258,-0.018,-2.99
Cn1c(=O)cc(N2CCCC(N)C2)n(Cc2cc(F)ccc2C#N)c1=O (stereo not given),1.11,-10.3,-9.83,-17.8,-7.98
CC(C)NCC(O)c1cc(O)cc(O)c1 (stereo not given),0.642,10.3,10.8,-6.78,0.884
Cc1cccc(-c2n[nH]n3c2nc(=O)c2ccc(C(=O)N4CCN(c5ccccn5)CC4)cc23)c1,-14.7,2,-8.23,-6.05,-4.76
CCNC(=O)N(C1CC1)C1CCOC2(CCN(C(=O)COc3ccccc3)CC2)C1 (stereo not given),-3.69,-4.42,-1.08,-5.79,-3.41
O=S(=O)(c1ccc(F)cc1)N1CCCC(CN2CCOCC2)CC1 (stereo not given),-0.715,0.397,-4.87,0.341,-7.62
O=C(/C=C/c1ccc(O)cc1)O[C@@H]1C[C@@](O)(C(=O)O)C[C@@H](O)[C@@H]1O,5.5,2.36,-2.57,-7.82,2.83
C[C@@H]1O[C@@H](O[C@H]2[C@H](OC(=O)C34CCC(C)(C)CC3C3=CCC5C6(C)CC(O)C(O[C@@H]7O[C@H](CO)[C@@H](O)[C@H](O)[C@H]7O)C(C)(C(=O)O)C6CCC5(C)C3(CO)CC4)O[C@H](C)[C@H](O)[C@@H]2O)[C@H](O)[C@H](O)[C@H]1O[C@@H]1OC[C@@H](O)[C@H](O)[C@H]1O (stereo not given in full),-1.04,-2.71,5.13,-15.3,3.23
COc1ccc(-c2cc3n(n2)CC(C)(C(=O)NCc2ccccc2)N(Cc2ccc(Cl)cc2)C3=O)cc1 (stereo not given),2.09,2.2,6.18,2.32,0.907
CC(=O)/C(C)=N/O,7.14,8.64,10.1,-5.44,2.22
CC(=O)N1CCc2ccc(O)c(OC3OC(COC4OCC(O)(CO)C4O)C(O)C(O)C3O)c2C1Cc1ccc(O)cc1 (stereo not given),0,4.23,8.26,-7.9,-1.06
COc1ccc(N2C(=O)c3cc4occc4n3CC2(C)C(=O)NC2CCCC(C)C2C)cc1OC (stereo not given),5,17.5,6.05,11.2,1.05
O=C(NCc1ccc2c(c1)OCO2)C1CCN(c2cn[nH]c(=O)c2)C1 (stereo not given),-6.08,-12.1,-4.39,-16.9,-14.1
Cc1ccsc1CCNC(=O)Cn1c(=O)oc2cc(S(=O)(=O)N3CCCC3)ccc21,4.3,0,9.93,9.69,-54.4
COC(=O)Nc1cc(-c2ccncc2)nn1C,-1.51,0.847,0.712,-5.77,15.2
Cc1ccc(N(C)C(=O)Cn2c(=O)oc3cc(S(=O)(=O)N4CCCCC4)ccc32)cc1,-0.006,0,3,8.68,-2.64
Cc1ccc(Cn2c(=O)c3ccccc3n3c(CCC(=O)N4CCN(c5ccc(F)cc5)CC4)nnc23)cc1,-9.5,1.32,-8.75,-8.89,-11.9
